In patent US5475132A, “Antifungal agents based on amides containing a phenyl group” (Rhone-Poulenc Agrochimie, priority 1988, dated 1995) one finds inhibition data, which are given here for 66 molecules.

The test system of the first test is Plasmopara viticola. Nature of the test: Example B2: treatment of vine mildew (Plasmopara viticola) on vine cuttings. Conditions: 192 h, 330 ppm (0.33 g/l), vine cuttings, 8 days after infection, read-out: inhibition of the development of the mould. Here is the method:
Treatment of vine mildew (Plasmopara viticola)
Vine (Vitis vinifera) cuttings of the Chardonnay variety are cultivated in pots. When these plants are 2 months old (8 to 10 leaf stage, height 20 to 30 cm) they are treated in the same manner as in Example B1.
After drying for 24 hours, each plant is infected by spraying with an aqueous suspension of spores of Plasmopara viticola which is responsible for vine mildew, at the rate of about 5 ml/plant (that is about 100,000 spores per plant).
After this infection, the vine plants are incubated for two days at about 18° C. in a saturated atmosphere, then for five days at about 20°-22° C. and 90-100% relative humidity.
Eight days after infection, the results obtained in the case of the plants treated with the active material to be tested are compared with those obtained in the case of plants used as controls.
One may read the inhibition as the relative decrease from the control value, in per cent. Consider `COCCN(C)C(=O)c1ccc(-c2ccc(C#N)cc2)nc1-c1ccc(OC)c(OC)c1` [Compound 3100], for which the inhibition at 330 ppm was no less than 80%.
Turning to `COc1ccc(-c2ccc(C(=O)N3CCOCC3)c(-c3ccc(OC)c(OC)c3)c2)cc1OC` [Compound 234], the inhibition at 330 ppm is no less than 80%.
Same read-out and setting: the figure for `COc1ccc(-c2c(C(=O)N3CCOCC3)oc3ccccc23)cc1OC` [Compound 137] is no less than 80%; for `COCCN(C)C(=O)c1ccc(-c2ccsc2)nc1-c1ccc(OC)c(OC)c1` [Compound 3117] it is no less than 80%; for `COCCN(C)C(=O)c1ccc(-c2ccccc2)nc1-c1ccc(OC)c(OC)c1` [Compound 354] it is no less than 80%.
Still for that read-out and setting: the figure for `COc1ccc(-c2cc(-c3ccc(C)cc3)ccc2C(=O)N(C)C)cc1OC` [Compound 217] is no less than 80%; for `COc1ccc(-c2c(C(=O)N3CCOCC3)sc3ccc(Br)cc23)cc1OC` [Compound 114] it is no less than 80%; for `CCN(CC)C(=O)c1cnc(-c2ccc(Cl)c(Cl)c2)nc1-c1ccc(OC)c(OC)c1` [Compound 420] it is no less than 80%.
On the same count and under the same terms, the value for `COc1ccc(-c2c(C(=O)N3CC(C)OC(C)C3)sc3ccccc23)cc1OC` (stereo not drawn) [Compound 152] was no less than 80%; that for `COc1ccc(-c2nn(Cc3ccccc3)cc2C(=O)N2CCOCC2)cc1OC` [Compound 613, 1-Benzyl-3-(3,4-dimethoxyphenyl)-4-(morpholinocarbonyl)pyrazole] was no less than 80%.
Take `COc1ccc(-c2nc(-c3ccc(Cl)cc3)ccc2C(=O)N2CC(C)OC(C)C2)cc1OC` (stereo not drawn) [Compound 374]: the inhibition at 330 ppm is no less than 80%.
Regarding `COc1ccc(-c2nc(-c3ccc(C4CC4(Cl)Cl)cc3)ccc2C(=O)N2CCOCC2)cc1OC` (stereo not drawn) [Compound 355], the inhibition at 330 ppm was no less than 80%.
In the case of `COc1ccc(-c2c(C(=O)N(C)CCO)sc3ccccc23)cc1OC` [Compound 156], the inhibition at 330 ppm was no less than 80%.
Same read-out and setting: the value for `COCC1CCCN1C(=O)c1sc2ccccc2c1-c1ccc(OC)c(OC)c1` (stereo not drawn) [Compound 163] was no less than 80%; that for `COc1ccc(-c2nc(-c3ccc(Cl)cc3)ccc2C(=O)N(C)Cc2ccco2)cc1OC` [Compound 378] was no less than 80%.
Same read-out and setting: the value for `COc1ccc(-c2c(C(=O)N3CCOCC3)sc3c(F)cccc23)cc1OC` [Compound 122] was no less than 80%.
For the molecule `CCCN(C)C(=O)c1ccc(-c2ccccc2)nc1-c1ccc(OC)c(OC)c1` [Compound 365], the inhibition at 330 ppm is no less than 80%.
Still for that read-out and setting: the value for `COCCN(C)C(=O)c1sc2ccccc2c1-c1ccc(OC)c(OC)c1` [Compound 158] was no less than 80%; that for `CCN(C)C(=O)c1ccc(-c2ccc(C)cc2)cc1-c1ccc(OC)c(OC)c1` [Compound 215] was no less than 80%.
The same measure, in the same setting: the figure for `COCCN(C)C(=O)c1ccc(Cl)cc1-c1ccc(OC)c(OC)c1` [Compound 210] is no less than 80%; for `COc1ccc(-c2c(C(=O)N3CCOCC3)sc3ccc(NC(C)=O)cc23)cc1OC` [Compound 115] it is no less than 80%; for `COc1ccc(-c2nc(-c3ccco3)ccc2C(=O)N2CCOCC2)cc1OC` [Compound 3116] it is no less than 80%.
On to `COc1ccc(-c2nc(-c3ccc(Cl)cc3)ccc2C(=O)NCC2CCCO2)cc1OC` (stereo not drawn) [Compound 375], for which the inhibition at 330 ppm was no less than 80%.
Turning to `COc1ccc(-c2nc(-c3ccc(Cl)cc3)ccc2C(=O)N2CCCC2)cc1OC` [Compound 373], the inhibition at 330 ppm is no less than 80%.
The same measure, in the same setting: the figure for `COCCN(CCOC)C(=O)c1ccc(-c2ccc(F)cc2)nc1-c1ccc(OC)c(OC)c1` [Compound 351] is no less than 80%.
Regarding `COc1ccc(-c2c(C(=O)N3CCOCC3)sc3cccc(Cl)c23)cc1OC` [Compound 128], the inhibition at 330 ppm is no less than 80%.
Regarding `COc1ccc(-c2nc(Sc3ccc(Cl)c(Cl)c3)ncc2C(=O)N2CCOCC2)cc1OC` [Compound 450], the inhibition at 330 ppm is no less than 80%.
`COc1ccc(-c2c(C(=O)N3CCOCC3)oc3ccc([N+](=O)[O-])cc23)cc1OC` [Compound 136]: the inhibition at 330 ppm is no less than 80%.
Same read-out and setting: the value for `COc1ccc(-c2nc(-c3ccc(Cl)cc3)ccc2C(=O)N(C)CCO)cc1OC` [Compound 383] was no less than 80%.
For the molecule `COc1ccc(-c2nc(Oc3ccc(C(F)(F)F)cc3)ncc2C(=O)N2CCOCC2)cc1OC` [Compound 442], the inhibition at 330 ppm is no less than 80%.
Same read-out and setting: the figure for `COc1ccc(-c2c(C(=O)N3CCOCC3)n(C)c3ccc([N+](=O)[O-])cc23)cc1OC` [Compound 141] is no less than 80%; for `CCN(C)C(=O)c1cnc(-c2ccc(Cl)c(Cl)c2)nc1-c1ccc(OC)c(OC)c1` [Compound 421] it is no less than 80%.
Turning to `COc1ccc(-c2nc(Oc3ccc(Cl)c(C)c3)ncc2C(=O)N2CCOCC2)cc1OC` [Compound 441], the inhibition at 330 ppm is no less than 80%.
Consider `COc1ccc(-c2nc(-c3cccc4ccccc34)ccc2C(=O)N2CCOCC2)cc1OC` [Compound 3114], for which the inhibition at 330 ppm was no less than 80%.
Still for that read-out and setting: the figure for `COc1ccc(-c2nc(-c3ccc(Cl)cc3)ccc2C(=O)N(C)CCOC(C)=O)cc1OC` [Compound 397] is no less than 80%; for `COCC1CCCCN1C(=O)c1sc2ccccc2c1-c1ccc(OC)c(OC)c1` (stereo not drawn) [Compound 159] it is no less than 80%; for `COc1ccc(-c2c(C(=O)N3CCOCC3)sc3c(Cl)cccc23)cc1OC` [Compound 124] it is no less than 80%.
As for `COc1ccc(-c2c(C(=O)N3CCOCC3)cnn2-c2ccccc2)cc1OC` [Compound 623], the inhibition at 330 ppm was no less than 80%.
The same measure, in the same setting: the figure for `COc1ccc(-c2oc(-c3ccc(Cl)cc3)cc2C(=O)N2CCOCC2)cc1OC` [Compound 616] is no less than 80%; for `CCCCN(C)C(=O)c1ccc(-c2ccc(Cl)cc2)nc1-c1ccc(OC)c(OC)c1` [Compound 362] it is no less than 80%.
Take `COc1ccc(-c2c(C(=O)N3CCOCC3)sc3c(NC(C)=O)cccc23)cc1OC` [Compound 132]: the inhibition at 330 ppm is no less than 80%.
Still for that read-out and setting: the value for `COc1ccc(-c2c(C(=O)N(C)C)sc3ccccc23)cc1OC` [Compound 155] was no less than 80%; that for `COc1ccc(-c2ccc(C(=O)N3CCOCC3)c(-c3ccc(OC)c(OC)c3)n2)cc1` [Compound 389] was no less than 80%; that for `COc1ccc(-c2nc(Oc3ccc(F)cc3)ncc2C(=O)N2CCOCC2)cc1OC` [Compound 439] was no less than 80%.
Turning to `COc1ccc(-c2c(C(=O)N3CCOCC3)sc3c(Br)cccc23)cc1OC` [Compound 123], the inhibition at 330 ppm is no less than 80%.
The same measure, in the same setting: the value for `COc1ccc(-c2nc(-c3ccccc3)ccc2C(=O)N(C)CCC#N)cc1OC` [Compound 387] was no less than 80%; that for `COc1ccc(-c2nc(-c3ccc(Cl)cc3)ccc2C(=O)N(C)OC)cc1OC` [Compound 394] was no less than 80%; that for `COc1ccc(-c2nc(-c3ccc(Cl)cc3)ccc2C(=O)N2CCC(O)CC2)cc1OC` [Compound 377] was no less than 80%.
On the same count and under the same terms, the figure for `COc1ccc(-c2c(C(=O)N3CCOCC3)sc3cc(Cl)ccc23)cc1OC` [Compound 125] is no less than 80%; for `COc1ccc(-c2c(C(=O)N3CCCC3)sc3ccccc23)cc1OC` [Compound 154] it is no less than 80%.
On to `COc1ccc(-c2nc(-c3ccc(F)cc3)c(C)cc2C(=O)N2CCOCC2)cc1OC` [Compound 368], for which the inhibition at 330 ppm is no less than 80%.
Consider `COc1ccc(-c2c(C(=O)N3CC(C)OC(C)C3)sc3ccc(F)cc23)cc1OC` (stereo not drawn) [Compound 168], for which the inhibition at 330 ppm was no less than 80%.
With `CCN(CC)C(=O)c1sc2ccccc2c1-c1ccc(OC)c(OC)c1` [Compound 107, 2-(N,N-Diethylcarboxamide)-3-(3,4-dimethoxyphenyl)benzothiophene], the inhibition at 330 ppm was no less than 80%.
`COc1ccc(-c2nc(Sc3ccc(Cl)cc3)ncc2C(=O)N2CCOCC2)cc1OC` [Compound 436]: the inhibition at 330 ppm is no less than 80%.
Consider `COc1ccc(-c2c(C(=O)N3CCOCC3)sc3cccc(C)c23)cc1OC` [Compound 130], for which the inhibition at 330 ppm is no less than 80%.
On the same count and under the same terms, the value for `COc1ccc(-c2c(C(=O)N3CCCCC3)sc3ccccc23)cc1OC` [Compound 153] was no less than 80%; that for `COc1ccc(-c2nc(-c3ccc4ccccc4c3)ccc2C(=O)N2CCOCC2)cc1OC` [Compound 3115] was no less than 80%.
The same measure, in the same setting: the figure for `O=C(c1ccc(-c2ccc(F)cc2)cc1-c1ccc2c(c1)OCO2)N1CCOCC1` [Compound 229] is no less than 80%; for `COc1ccc(-c2nc(Oc3ccc(Cl)cc3)ncc2C(=O)N2CCOCC2)cc1OC` [Compound 437] it is no less than 80%.
With `COc1ccc(-c2c(C(=O)N3CCOCC3)sc3c(N)cccc23)cc1OC` [Compound 121], the inhibition at 330 ppm is no less than 80%.
On the same count and under the same terms, the value for `COc1ccc(-c2c(C(=O)N3CCOCC3)sc3c(NC(=O)C(F)(F)F)cccc23)cc1OC` [Compound 131] was no less than 80%.
On to `COc1ccc(-c2c(C(=O)N3CCOCC3)sc3c(C)cccc23)cc1OC` [Compound 127], for which the inhibition at 330 ppm was no less than 80%.
As for `COc1ccc(-c2nc(-c3ccc(Br)cc3)ccc2C(=O)N(C)CCO)cc1OC` [Compound 380], the inhibition at 330 ppm was no less than 80%.
Same read-out and setting: the figure for `COc1ccc(-c2nc(-c3ccc(Cl)cc3)c(C)cc2C(=O)N2CCOCC2)cc1OC` [Compound 367] is no less than 80%.
Take `COc1ccc(-c2c(C(=O)N3CCCC3CO)sc3ccccc23)cc1OC` (stereo not drawn) [Compound 160]: the inhibition at 330 ppm is no less than 80%.

Still in this test, the particulars now being: 192 h, read-out: inhibition of the development of the mould.
Consider `COc1ccc(-c2c(C(=O)N3CCC(=O)CC3)sc3ccccc23)cc1OC` [Compound 162], for which the inhibition at 330 ppm is no less than 80%.
